SMILES strings stand for the structures.

The term melting point denotes the temperature of the solid-liquid transition. `COc1ccc2cccc(Oc3cc(-c4ccc(C(F)(F)F)cc4)ncn3)c2n1` registered a melting point of 158 to 161 °C.

The values above are taken from a melting point compilation (Tetko et al.; mined from patent text by program, amines drawn as free bases though some values may be those of a salt).
